Experimental data taken from PubChem BioAssay AID220 (DTP/NCI, 2004).
Inconclusive results are not listed. Some entries of the source have several records that differ or are many. The list is limited to them. An entry can have further records. Results that share an entry are repeated measurements across runs, samples, wells, individuals or studies. A tag in brackets gives the origin of a value. The letters are not those of the source and start again with each entry. Starred links: 1 amine or outer side, 2 acyl side, 3 side chain; linkers in the order of their positions; H or OH if unused. Positions of bridges follow the written chain, without caps; N, C: chain ends. Non-standard residues stand in square brackets, D forms with d. Residues, ends and D or L forms follow the SMILES beside them. Chains are numbered I, II in the order given. Actinocin(9to1) = Cc1c2oc3c(C)ccc(C(=O)[*:1])c3nc-2c(C(=O)[*:2])c(N)c1=O; aThr = C[C@H](O)[C@H](N)C(=O)O; NMeV = CN[C@H](C(=O)O)C(C)C; Sar = CNCC(=O)O

Test system: CD8F1 mice, subcutaneous mammary adenocarcinoma, T/C%
Test: NCI In Vivo Anticancer Drug Screen. Data for tumor model Mammary Adenocarcinoma CD8F1 (subcutaneous) in CD8F1
Conditions: higher = larger tumour
Procedure, shortened: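 Tumor-bearing mice, transplantable model; readout survival or tumor size; value = treated (T) / vehicle control (C).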

[1] = endpoint: median tumor weight (est.), dose: 50.0 mg/kg/injection, schedule: Q07DX005 (ip), vehicle: Klucel (hydroxypropylcellulose) (HPC)
[2] = endpoint: median tumor weight (est.), dose: 100.0 mg/kg/injection, schedule: Q07DX005 (ip), vehicle: saline with Tween-80

For `CN(N=O)C(=O)N[C@@H](C=O)[C@@H](O)[C@H](O)[C@H](O)CO`, which T/C (endpoint: median tumor weight (est.), dose: 32.0 mg/kg/injection, schedule: Q07DX005 (ip), vehicle: other) is on record?
The T/C was 89 % of control and 158 % of control.

Which T/C (endpoint: median tumor weight (est.), dose: 25.0 mg/kg/injection, schedule: Q07DX005 (ip), vehicle: suspension in saline) does the source give for `O=c1n(CC2CO2)c(=O)n(CC2CO2)c(=O)n1CC1CO1` (configuration not stated) here?
The T/C was 85 % of control [sample A] and 39 % of control [sample B].

`C[C@]12CC[C@H]3[C@@H](CCC4=C[C@@H](OC5OCC(OC6OC(CO)C(O)C(O)C6O)C(O)C5O)CC[C@@]43C=O)[C@@]1(O)CCC2C1=CC(=O)OC1` (some centres not stated) was tested. Which T/C (endpoint: median tumor weight (est.), dose: 2.5 mg/kg/injection, schedule: Q07DX005 (ip), vehicle: Klucel (hydroxypropylcellulose) (HPC)) did it give?
The T/C was 65 % of control and 95 % of control.

What about the T/C (endpoint: median tumor weight (est.), dose: 5.0 mg/kg/injection, schedule: Q07DX005 (ip), vehicle: Klucel (hydroxypropylcellulose) (HPC)) of the same molecule?
Its T/C is 94 % of control and 124 % of control.

For `CS(=O)(=O)[O-].CS(=O)(=O)[O-].NC1CCCCC1N.[Pt+4]` (configuration not stated), which T/C (endpoint: median tumor weight (est.), dose: 0.62 mg/kg/injection, schedule: Q07DX005 (ip), vehicle: dextrose) is on record?
Its T/C is 30 % of control and 99 % of control.

And the T/C (endpoint: median tumor weight (est.), dose: 1.25 mg/kg/injection, schedule: Q07DX005 (ip), vehicle: dextrose)?
Its T/C is 32 % of control, 46 % of control, 93 % of control.

And the T/C (endpoint: median tumor weight (est.), dose: 2.5 mg/kg/injection, schedule: Q07DX005 (ip), vehicle: dextrose)?
Its T/C is 14 % of control and 49 % of control.

How did the T/C (endpoint: median tumor weight (est.), dose: 8.0 mg/kg/injection, schedule: Q07DX005 (ip), vehicle: Klucel (hydroxypropylcellulose) (HPC)) turn out when `C[n+]1ccc(Nc2ccc(NC(=O)c3ccc(Nc4cc[n+](C)c5ccc(N)cc45)cc3)cc2)cc1` was run?
Its T/C is 68 % of control and 105 % of control.

For `CC(=O)c1cccc(NC2C(N)C(NC(=O)N(C)C)(C(C)O)C(C)(O)C2(O)COC(=O)c2c(C)cccc2O)c1` (configuration not stated), which T/C (endpoint: median tumor weight (est.), dose: 0.9 mg/kg/injection, schedule: Q07DX005 (ip), vehicle: saline with Tween-80) is on record?
The T/C was 44 % of control and 73 % of control.

For `CN(Cc1cnc2nc(N)nc(N)c2n1)c1ccc(C(=O)N[C@@H](CCC(=O)O)C(=O)O)cc1`, which T/C (endpoint: median tumor weight (est.), dose: 10.0 mg/kg/injection, schedule: Q07DX005 (ip), vehicle: sodium bicarbonate) is on record?
The T/C was 61 % of control and 111 % of control.

For `CC[C@@]1(O)C[C@H](OC2CC(N(C)C)C(OC3CC(O)C(O[C@@H]4O[C@@H](C)C(=O)C=C4N)C(C)O3)C(C)O2)c2c(cc3c(c2O)C(=O)c2c(O)ccc(O)c2C3=O)[C@H]1C(=O)OC` (some centres not stated), which T/C (endpoint: median tumor weight (est.), dose: 0.75 mg/kg/injection, schedule: Q07DX005 (ip), vehicle: suspension in saline) is on record?
Its T/C is 33 % of control and 170 % of control.

What about the T/C (endpoint: median tumor weight (est.), dose: 1.5 mg/kg/injection, schedule: Q07DX005 (ip), vehicle: suspension in saline) of the same molecule?
The T/C was 61 % of control and 154 % of control.

`CNc1nc2c(N)ncnc2n1C1OC(CO)C(O)C1O` (configuration not stated) was tested. Which T/C (endpoint: median tumor weight (est.), dose: 12.5 mg/kg/injection, schedule: Q07DX005 (ip), vehicle: suspension in saline) did it give?
Its T/C is 60 % of control and 115 % of control.

Which T/C (endpoint: median tumor weight change, dose: 500.0 mg/kg/injection, schedule: Q01DX001 (ip), vehicle: DMSO) does the source give for `CC1=CC(C)(C)Nc2ccc(CSc3ccccc3)cc21` here?
The T/C was 32 % of control and 72 % of control.

And the T/C (endpoint: median tumor weight change, dose: 1000.0 mg/kg/injection, schedule: Q01DX001 (ip), vehicle: DMSO)?
Its T/C is 6 % of control and 91 % of control.

With `N[C@@H](Cc1ccc(N(CCCl)CCCl)cc1)C(=O)O` as the molecule, how does the T/C (endpoint: median tumor weight (est.), dose: 2.0 mg/kg/injection, schedule: Q07DX005 (ip), vehicle: suspension in saline) read?
The T/C was 17 % of control and 49 % of control.

`Cc1c2oc3c(C)ccc(C(=O)N[C@@H]4C(=O)N[C@H](C(C)C)C(=O)N5CCC[C@H]5C(=O)N(C)CC(=O)N(C)[C@@H](C(C)C)C(=O)O[C@H]4C)c3nc-2c(C(=O)N[C@@H]2C(=O)N[C@H](C(C)C)C(=O)N3CCC[C@H]3C(=O)N(C)CC(=O)N(C)[C@@H](C(C)C)C(=O)O[C@H]2C)c(N)c1=O` (I: [aThr][dV]P[Sar][NMeV] / II: [aThr][dV]P[Sar][NMeV]; ester I:1-I:C, II:1-II:C; linker I:N-II:N via Actinocin(9to1)) was tested. Which T/C (endpoint: median tumor weight (est.), dose: 0.07 mg/kg/injection, schedule: Q07DX005 (ip), vehicle: saline) did it give?
The T/C was 52 % of control and 106 % of control.

`COC1C(O)CC(OC2CC(Oc3cc4cc5c(c(O)c4c(O)c3C)C(=O)[C@@H](OC3CC(OC4CC(OC6CC(C)(O)C(OC(C)=O)C(C)O6)C(O)C(C)O4)C(O)C(C)O3)[C@H]([C@H](OC)C(=O)[C@@H](O)[C@@H](C)O)C5)OC(C)C2OC(C)=O)OC1C` (some centres not stated) was tested. Which T/C (endpoint: median tumor weight (est.), dose: 0.18 mg/kg/injection, schedule: Q07DX005 (ip), vehicle: saline) did it give?
The T/C was 44 % of control and 115 % of control.

For `CCC[CH2][Sn]1([CH2]CCC)[O]C2C(CO)OC(n3ccc(N)nc3=O)C2[O]1` (configuration not stated), which T/C (endpoint: median tumor weight (est.), dose: 3.12 mg/kg/injection, schedule: Q07DX005 (ip), vehicle: Klucel (hydroxypropylcellulose) (HPC)) is on record?
The T/C was 26 % of control and 63 % of control.

How did the T/C (endpoint: median tumor weight (est.), dose: 12.5 mg/kg/injection, schedule: Q07DX005 (ip), vehicle: Klucel (hydroxypropylcellulose) (HPC)) turn out when `Ic1ncnc2c1ncn2C1CCCO1` (configuration not stated) was run?
Its T/C is 46 % of control and 78 % of control.

What about the T/C [1] of the same molecule?
The T/C was 31 % of control and 113 % of control.

What about the T/C (endpoint: median tumor weight (est.), dose: 100.0 mg/kg/injection, schedule: Q07DX005 (ip), vehicle: Klucel (hydroxypropylcellulose) (HPC)) of the same molecule?
Its T/C is 22 % of control and 61 % of control.

How did the T/C (endpoint: median tumor weight (est.), dose: 16.0 mg/kg/injection, schedule: Q07DX005 (ip), vehicle: saline with Tween-80) turn out when `CC1=C(/C=C/C(C)=C/C=C/C(C)=C/CO)C(C)(C)CCC1` was run?
The T/C was 76 % of control and 153 % of control.

And the T/C (endpoint: median tumor weight (est.), dose: 64.0 mg/kg/injection, schedule: Q07DX005 (ip), vehicle: saline with Tween-80)?
Its T/C is 37 % of control and 222 % of control.

What about the T/C (endpoint: median tumor weight (est.), dose: 128.0 mg/kg/injection, schedule: Q07DX005 (ip), vehicle: saline with Tween-80) of the same molecule?
The T/C was 89 % of control and 189 % of control.

And the T/C (endpoint: median tumor weight (est.), dose: 256.0 mg/kg/injection, schedule: Q07DX005 (ip), vehicle: saline with Tween-80)?
The T/C was 60 % of control and 162 % of control.

What does the source list for `CN1C(=O)NC(c2ccc(Cl)cc2)(c2ccc(Cl)cc2)C1=O`?
T/C (endpoint: median tumor weight (est.), dose: 12.5 mg/kg/injection, schedule: Q07DX005 (ip), vehicle: distilled water + Tween-80): 124 % of control and 151 % of control; T/C (endpoint: median tumor weight (est.), dose: 25.0 mg/kg/injection, schedule: Q07DX005 (ip), vehicle: distilled water + Tween-80): 66 % of control, 160 % of control, 163 % of control; T/C (endpoint: median tumor weight (est.), dose: 50.0 mg/kg/injection, schedule: Q07DX005 (ip), vehicle: distilled water + Tween-80): 111 % of control and 151 % of control; T/C (endpoint: median tumor weight (est.), dose: 100.0 mg/kg/injection, schedule: Q07DX005 (ip), vehicle: distilled water + Tween-80): 97 % of control, 98 % of control, 198 % of control; T/C (endpoint: median tumor weight (est.), dose: 200.0 mg/kg/injection, schedule: Q07DX005 (ip), vehicle: distilled water + Tween-80): 64 % of control and 198 % of control; T/C (endpoint: median tumor weight (est.), dose: 400.0 mg/kg/injection, schedule: Q07DX005 (ip), vehicle: distilled water + Tween-80): 1 % of control and 50 % of control

For `OC(CBr)C(O)C(O)C(O)CBr` (configuration not stated), which T/C [1] is on record?
The T/C was 51 % of control, 54 % of control, 91 % of control [sample A] and 35 % of control [sample B].

For `CN(C)N=Nc1ccc(S(N)(=O)=O)cc1`, which T/C (endpoint: median tumor weight (est.), dose: 25.0 mg/kg/injection, schedule: Q07DX005 (ip), vehicle: Klucel (hydroxypropylcellulose) (HPC)) is on record?
Its T/C is 117 % of control and 168 % of control.

What does the source list for `O=C(N/N=C\c1cc(Br)cc(Br)c1O)N/N=C/c1cc(Br)cc(Br)c1O`?
T/C (endpoint: median tumor weight (est.), dose: 12.5 mg/kg/injection, schedule: Q07DX005 (ip), vehicle: saline with Tween-80): 96 % of control and 324 % of control; T/C (endpoint: median tumor weight (est.), dose: 25.0 mg/kg/injection, schedule: Q07DX005 (ip), vehicle: saline with Tween-80): 54 % of control and 303 % of control; T/C [2]: 67 % of control and 151 % of control

With `COc1cc2cc3c4cc(OC)c(OC)cc4cc[n+]3c(C)c2cc1OC` (tested in a mixture with another compound) as the molecule, how does the T/C (endpoint: median tumor weight (est.), dose: 200.0 mg/kg/injection, schedule: Q07DX005 (ip), vehicle: suspension in saline) read?
Its T/C is 14 % of control and 55 % of control.

Which results are given for `O=C(Nc1nncs1)c1ccncc1`?
T/C (endpoint: median tumor weight (est.), dose: 50.0 mg/kg/injection, schedule: Q07DX005 (ip), vehicle: saline with Tween-80): 63 % of control and 165 % of control; T/C [2]: 119 % of control and 160 % of control; T/C (endpoint: median tumor weight (est.), dose: 200.0 mg/kg/injection, schedule: Q07DX005 (ip), vehicle: saline with Tween-80): 43 % of control and 165 % of control; T/C (endpoint: median tumor weight (est.), dose: 400.0 mg/kg/injection, schedule: Q07DX005 (ip), vehicle: saline with Tween-80): 43 % of control and 93 % of control
